Each structure is given as a SMILES string. Where a name gives a salt, the structure may show the parent alone. In all, about 2,800 compounds were measured (“cell viability relative to vehicle”: median about 0.98, lowest 2% from about 0.45 on). The list shows a part of the results.

For the assay, the system named is NCI-H2228 alectinib-DTP. Briefly: cell viability relative to vehicle (fraction of vehicle); NCI-H2228 is an ALK-positive lung cancer line and DTP means drug-tolerant persister; higher = less growth inhibition. The conditions noted are these: 100 nM; treatment time 6 days. In short, it runs like this:
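Each value is viability relative to vehicle-treated cells, measured as ATP with the CellTiter-Glo 3D Cell Viability Assay. Parental NCI-H2228 cells and drug-tolerant persisters (1000 nM targeted drug, 13 days) in 384-well plates received the 3114-agent TargetMol anti-cancer compound library at 100 nM, or DMSO, and were read 6 days later.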
Turning to `C=C(C)[C@@H]1CC[C@]2(C(=O)O)CC[C@]3(C)[C@H](CC[C@@H]4[C@@]5(C)CC[C@H](O)C(C)(C)[C@@H]5CC[C@]43C)[C@@H]12` [Betulinic acid], the cell viability was 0.953.
The value for `CCOc1cc(N2CCC(O)CC2)ccc1Nc1ncc2c(n1)N(C1CCCC1)CCC(=O)N2C` was 0.978; that for `C[C@@H](O)[C@H]1C(=O)N2C(C(=O)O)=C(SCCNC=N)C[C@H]12` [Imipenem] was 0.956; that for `CC(C)NC(=O)COc1cccc(-c2nc(Nc3ccc4[nH]ncc4c3)c3ccccc3n2)c1` was 0.923.
As for `CC(C)OC(=O)C(C(=O)OC(C)C)=C1SC=CS1` [Malotilate], the cell viability was 0.884.
The same measure for `CC1=C(C(=O)Nc2ccc3[nH]ncc3c2)C(c2ccc(F)c(C(=O)NCc3ccccn3)c2)NC(=O)N1` (stereo unspecified): 1; for `CCN(CC)CCCC(C)Nc1ccnc2cc(Cl)ccc12` (stereo unspecified) [Chloroquine diphosphate]: 1.11; for `Cn1cc(-c2cnn3c(N)c(Br)c([C@H]4CCCNC4)nc23)cn1`: 0.907.
Regarding `CCNC(=O)[C@H]1O[C@@H](n2cnc3c(N)nc(NCCc4ccc(CCC(=O)O)cc4)nc32)[C@H](O)[C@@H]1O`, the cell viability turned out to be 1.
The same measure for `CC(C)=CCC[C@](C)(O)[C@H]1CC[C@]2(C)[C@@H]1[C@H](O)C[C@@H]1[C@@]3(C)CC[C@H](O[C@@H]4O[C@H](CO)[C@@H](O)[C@H](O)[C@H]4O[C@@H]4O[C@H](CO)[C@@H](O)[C@H](O)[C@H]4O)C(C)(C)[C@@H]3CC[C@]12C` [Ginsenoside Rg3]: 0.945; for `O=C(COc1cccc2c(=O)[nH]ccc12)c1ccccc1`: 0.996.
The value for `CC(C)c1nc(N(C)S(C)(=O)=O)nc(-c2ccc(F)cc2)c1/C=C/[C@@H](O)C[C@@H](O)CC(=O)O` [Rosuvastatin] was 0.801; that for `CC(=O)c1ccc(NC2=C(Cl)C(=O)c3ccccc3C2=O)cc1` was 0.908; that for `Nc1ccc(S(=O)(=O)NC(=O)c2ccccc2)cc1` [Sulfabenzamide] was 0.915.
For the molecule `C[C@@H](O)[C@H]1C(=O)N2C(C(=O)O)=C(S[C@@H]3CN[C@H](C(=O)Nc4cccc(C(=O)O)c4)C3)[C@H](C)[C@H]12` [Ertapenem sodium], the cell viability worked out at 0.975.
Consider `COc1ccc([C@@H]2OC[C@H]3[C@@H]2CO[C@@H]3c2ccc(O[C@@H]3O[C@H](CO)[C@@H](O)[C@H](O)[C@H]3O)c(OC)c2)cc1OC` [Forsythin], for which the cell viability was 0.913.
The value for `N#C/C(=C\c1ccc(O)c(O)c1)C(=O)Nc1ccccc1` was 0.971; that for `C=CC(C)(O)CCC=C(C)CCC=C(C)C` (mixture of isomers) [nerolidol] was 1.07; that for `C/C(=C1/C(=O)Nc2ccc(NC(N)=O)cc21)c1ccc[nH]1` was 1.02.
The value for `O=C1NC(=O)/C(=C/c2ccc3nccc(-c4ccncc4)c3c2)S1` was 0.921; that for `O=C1NC(=O)C(c2ccccc2[N+](=O)[O-])=C1Nc1ccc(O)c(Cl)c1` was 0.909.
The same measure for `COCCOc1nc(-c2ccc(Cl)c(Cl)c2)n(-c2ccc(NC(=O)CCl)cc2)n1` [MI 2 (MALT1 inhibitor)]: 1.14.
For the molecule `CC(C)[C@H](NC(=O)CCCCCN1C(=O)C=CC1=O)C(=O)N[C@@H](CCCNC(N)=O)C(=O)Nc1ccc(COC(=O)Oc2ccc([N+](=O)[O-])cc2)cc1`, the cell viability came out at 0.826.
The value for `CC(C(=O)O)c1cccc(Oc2ccccc2)c1` (stereo unspecified) [Fenoprofen calcium dihydrate] was 1; that for `CCn1cc(C(=O)O)c(=O)c2cc(F)c(N3CCNCC3)nc21` [Enoxacin Sesquihydrate] was 1.12; that for `CCn1cc(C(=O)O)c(=O)c2cc(F)c(N3CCNCC3)nc21` [Enoxacin] was 0.992.
For the molecule `CCCCCCCCC(=O)N[C@H](CN1CCCC1)[C@H](O)c1ccc2c(c1)OCCO2`, the cell viability is 1.25.
The same measure for `CC(=O)OCC(=O)NCCCOc1cccc(CN2CCCCC2)c1` [Roxatidine Acetate hydrochloride]: 1.05.
`OC[C@@H](O)[C@@H](O)[C@H](O)[C@H](O)CO` [D-Mannitol] registered a cell viability of 1.16.
The value for `COc1cc2c(c(OC)c1OC)-c1c(cc3c(c1OC)OCO3)C[C@H](C)[C@](C)(O)C2` [Gomisin A] was 1.07.
The value for `CONC(=O)c1ccccc1Nc1cc(Nc2cc(C)nn2C(C)C)ncc1Cl` was 0.889.
Molecule `O=C(COc1c(Cl)cc(Cl)cc1Cl)N/N=C/c1ccc[nH]1` yielded a cell viability of 0.956.
`CC(=Cc1ccc(C(=O)O)cc1)c1ccc2c(c1)C(C)(C)CCC2(C)C` yielded a cell viability of 0.884.
Regarding `COc1cc(Br)c(Nc2nc(-c3c(C)nc4ncccn34)cs2)c(Br)c1`, the cell viability stood at 0.992.
The value for `O=C(O)CCCCCCCC(=O)O` [Azelaic acid] was 0.938.
`FC(F)(F)C(Cl)Br` (stereo unspecified) [Anestan]: the cell viability stood at 1.04.
The value for `Cc1ccc(C(=O)c2ccc(CC(=O)O)n2C)cc1` [Tolmetin] was 1.05.
Molecule `COC(=O)Nc1nc2cc(C(=O)c3cccs3)ccc2[nH]1` [Nocodazole] registered a cell viability of 0.557.
The value for `CC(=O)OCC(=O)[C@@]1(O)CC[C@H]2[C@@H]3CCC4=CC(=O)C=C[C@]4(C)[C@@]3(Cl)[C@@H](Cl)C[C@@]21C` [Dichlorisone Acetate] was 0.731; that for `CC(C)Oc1ccc(-c2c[nH]cc2CN(C)CCN)cc1` was 0.835; that for `CCN[C@H]1CN(CCCOC)S(=O)(=O)c2sc(S(N)(=O)=O)cc21` [Brinzolamide] was 1.13.
In turn, `CNS(=O)(=O)c1ccccc1Nc1nc(Nc2ccc(N3CCN(C)CC3)cc2OC)ncc1Cl` [ALK inhibitor 2] came in with a cell viability of 1.
In turn, `CC(C)c1c(C(=O)Nc2ccccc2)c(-c2ccccc2)c(-c2ccc(F)cc2)n1CC[C@@H](O)C[C@@H](O)CC(=O)O` [Atorvastatin Calcium] displayed a cell viability of 1.
The same measure for `CC(C)(C)c1cnc(CSc2cnc(NC(=O)C3CCNCC3)s2)o1`: 0.733.
The value for `Nc1[nH]cnc2ncnc1-2` [Adenine hydrochloride] was 1.01; that for `N=C1CCCN1Cc1[nH]c(=O)[nH]c(=O)c1Cl` [Tipiracil hydrochloride] was 1.
The molecule `NC(=O)NCCC(=O)O` [3-Ureidopropionic acid] registered a cell viability of 0.979.
The value for `C[C@@H]1Cc2c([nH]c3ccccc23)[C@@H](c2c(F)cc(/C=C/C(=O)O)cc2F)N1CC(C)(C)F` was 0.962; that for `CC(=O)Nc1cccc(-n2c(=O)n(C3CC3)c(=O)c3c(Nc4ccc(I)cc4F)n(C)c(=O)c(C)c32)c1` [Trametinib] was 0.6.
The value for `OC(Cn1cncn1)(Cn1cncn1)c1ccc(F)cc1F` [Fluconazole] was 1.1.
The same measure for `NCCc1c[nH]cn1` [Histamine 2HCl]: 1.05; for `NCCc1c[nH]cn1` [Histamine]: 0.98; for `Cc1ccc(-c2csc3ncnc(SCCC(=O)O)c23)cc1`: 0.869.
`CC1(C)CC[C@]2(C(=O)O)CC[C@]3(C)C(=CC[C@@H]4[C@@]5(C)C[C@@H](O)[C@H](O)C(C)(C)[C@@H]5CC[C@]43C)[C@@H]2C1` [Maslinic acid] yielded a cell viability of 0.962.
The same measure for `Cc1cn[nH]c1` [4-Methylpyrazole]: 1.12.
`CN(C)C/C=C/C(=O)Nc1ccc(C(=O)Nc2cccc(Nc3ncc(Cl)c(-c4c[nH]c5ccccc45)n3)c2)cc1` gave a cell viability of 0.346.
The molecule `O=C1NC(=O)C(c2cnc3ccccn23)=C1c1cn2c3c(cc(F)cc13)CN(C(=O)N1CCCCC1)CC2` yielded a cell viability of 0.476.
The same measure for `O=C(NC[C@H](O)CN1CCc2ccccc2C1)c1cc(NC2COC2)ncn1`: 0.973; for `COc1cc2ncnc(Sc3nnc(C)s3)c2cc1OC`: 1.07.
`CNC1CCCN(c2c(F)cc3c(=O)c(C(=O)O)cn(C4CC4)c3c2OC)C1` (stereo unspecified) [Balofloxacin] displayed a cell viability of 1.12.
The same measure for `CC1(C)CC[C@]2(C(=O)O)CC[C@]3(C)C(=CC[C@@H]4[C@@]5(C)CC[C@H](O[C@@H]6O[C@H](C(=O)O)[C@@H](O)[C@H](O[C@@H]7OC[C@@H](O)[C@H](O)[C@H]7O)[C@H]6O)C(C)(C)[C@@H]5CC[C@]43C)[C@@H]2C1` [Momordin Ic]: 1.
In the case of `CC[C@H]1[C@@H](O)[C@@H]2[C@H](CC[C@]3(C)[C@@H]([C@H](C)CCC(=O)O)CC[C@@H]23)[C@@]2(C)CC[C@@H](O)C[C@@H]12` [Obeticholic Acid], the cell viability amounted to 0.788.
The same measure for `C[C@@H](Oc1ccc2[nH]nc(/C=C/c3cnn(CCO)c3)c2c1)c1c(Cl)cncc1Cl`: 0.773.
The value for `C[C@H]1O[C@H](O[C@H]2[C@H](O)[C@@H](O)[C@@H](O[C@H]3[C@H](O)[C@@H](O)C(O)O[C@@H]3CO)O[C@@H]2CO)[C@H](O)[C@@H](O)[C@@H]1N[C@H]1C=C(CO)[C@@H](O)[C@H](O)[C@H]1O` (stereo partly specified) [Acarbose] was 0.998; that for `N=C(N)NC(=N)NCCc1ccccc1` [Phenformin hydrochloride] was 1.07.
The molecule `O=c1[nH]c(C2CCCN2)nc2c1oc1ccc(Cl)cc12` (stereo unspecified) [XL413 hydrochloride] had a cell viability of 0.981.
The same measure for `CO[C@H]1/C=C/O[C@@]2(C)Oc3c(C)c(O)c4c(O)c(c(/C=N/N5CCN(C6CCCC6)CC5)c(O)c4c3C2=O)NC(=O)/C(C)=C\C=C\[C@H](C)[C@H](O)[C@@H](C)[C@@H](O)[C@@H](C)[C@H](OC(C)=O)[C@@H]1C` [Rifapentine]: 1.08.
The value for `CC(C)Oc1ccc(-c2nc(-c3cccc4c3CC[C@@H]4NCCO)no2)cc1C#N` [Ozanimod] was 0.913; that for `CN1CCC(=C2c3ccccc3C=Cc3ccccc32)CC1` [Cyproheptadine hydrochloride] was 1.17.
The value for `C[C@@H](CC[C@@]1(O)O[C@H]2C[C@H]3[C@@H]4CC[C@@H]5C[C@@H](O[C@@H]6O[C@H](CO)[C@H](O)[C@H](O)[C@H]6O[C@@H]6O[C@H](CO)[C@@H](O)[C@H](O)[C@H]6O)CC[C@]5(C)[C@H]4CC[C@]3(C)[C@H]2[C@@H]1C)CO[C@@H]1O[C@H](CO)[C@@H](O)[C@H](O)[C@H]1O` [Timosaponin BII] was 0.983; that for `COc1cc2c(NC3CCN(C(C)C)CC3)nc(C3CCCCC3)nc2cc1OCCCN1CCCC1` was 1.15.

For the origin of these results see the supplement of paper PMC10600219.
